The list shows a part of the results. Sequences were assembled here from the parent chain. Values near 0.05 are background.
B1: TEV protease; numbered along this chain (parent)
chain: MGESLFKGPRDYNPISSSICHLTNESDGHTTSLYGIGFGPFIITNKHLFRRNNGTLVVQSLHGVFKVKDTTTLQQHLVDGRDMIIIRMPKDFPPFPQKLKFREPQREERICLVTTNFQTKSMSSMVSDTSCTFPSGDGIFWKHWIQTKDGQCGSPLVSTRDGFIVGIHSASNFTNTNNYFTSVPKNFMELLTNQEAQQWVSGWRLNADSVLWGGHKVFMVKPEEPFQPVKEATQL

Variants of: B1
Experiment: raw area under fraction-flipped curve 0-4 h after induction (AUC4h, not background-subtracted), DNA-recorder readout of cleavage of the substrate (dimensionless); higher = more cleavage of the substrate by the protease variant
Conditions: temperature: 34 °C; time window: 0-4 h after rhamnose induction
Procedure: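 In vivo DNA recorder in E. coli TOP10(DE3) ΔrhaA at 34 °C. Each TEVp single-site mutant (parent TEVp 0) is paired with a single-site variant of the 7-mer TEVs (canonical ENLYFQ|S). The substrate sits between flexible linkers in a Bxb1-sfGFP-TEVs-SsrA fusion, so cleavage stabilises Bxb1 and speeds flipping of a recombination array, read by NGS. The value is the raw area under the fraction-flipped curve over 0-4 h after rhamnose induction (AUC4h), with ≥20 reads per time point. It is not background-subtracted; inactive controls average about 0.047.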
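Also: Bxb1 expression induced with 0.2% (w/v) L-rhamnose at OD600 near 0.5, cultures sampled hourly, flipped fraction per protease–substrate barcode pair counted by paired-end Illumina sequencing.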

Variant | area with substrate ENLYFAS | area with substrate ENLYFCS | area with substrate ENLYFFS | area with substrate ENLYFIS | area with substrate ENLYFKS | area with substrate ENLYFLS | area with substrate ENLYFMS | area with substrate ENLYFPS | area with substrate ENLYFRS | area with substrate ENLYFSS | area with substrate ENLYFTS | area with substrate ENLYFDS | area with substrate ENLYFES | area with substrate ENLYFNS | area with substrate ENLYFVS | area with substrate ENLYFWS | area with substrate ENLYFYS | area with substrate ENLYFGS | area with substrate ENLYFHS
M88P | 0.0461 | 0.0571 | 0.0567 | 0.0449 | 0.0487 | 0.0562 | 0.0632 | 0.0529 | 0.0596 | 0.0683 | 0.0355 |  |  |  |  |  |  |  | 
M88V | 0.062 | 0.0434 |  |  | 0.0585 |  | 0.0686 | 0.0473 |  | 0.0586 | 0.0536 | 0.0391 | 0.0373 | 0.0179 | 0.0528 | 0.0549 | 0.0747 |  | 
P134C | 0.0408 | 0.0616 | 0.0706 | 0.0602 |  | 0.0482 | 0.066 | 0.0527 | 0.0669 | 0.07 | 0.0541 | 0.0643 | 0.0719 | 0.0598 |  | 0.062 | 0.0536 | 0.0584 | 0.0578
I15L | 0.0571 | 0.0642 | 0.071 | 0.0598 | 0.0568 | 0.0608 | 0.0682 |  | 0.0611 |  | 0.046 | 0.0535 | 0.0517 | 0.066 | 0.0581 | 0.0678 |  | 0.053 | 0.06
L61C | 0.0561 | 0.0585 | 0.0664 | 0.0608 | 0.0709 | 0.0512 | 0.0649 | 0.0765 | 0.0589 | 0.0734 | 0.0544 | 0.0637 | 0.0647 | 0.04 | 0.0611 | 0.0425 | 0.0606 | 0.0596 | 0.0536
T31Q | 0.0537 |  | 0.0673 | 0.0564 | 0.0634 |  | 0.0682 | 0.0715 | 0.0735 | 0.0455 |  |  | 0.0739 | 0.0461 |  |  |  | 0.06 | 
P96H | 0.0573 | 0.0672 |  | 0.058 | 0.0629 |  | 0.0664 | 0.0543 | 0.059 |  | 0.0491 | 0.0804 | 0.074 | 0.0643 | 0.0394 |  | 0.0562 | 0.0564 | 0.0678
P96E | 0.092 |  |  | 0.0678 |  |  | 0.0687 | 0.0564 | 0.0642 | 0.0285 | 0.0528 | 0.0506 | 0.0645 |  |  | 0.0513 | 0.0557 |  | 
E25I | 0.0512 | 0.0513 | 0.0756 | 0.058 | 0.0559 | 0.0445 | 0.0803 | 0.054 | 0.0627 | 0.0492 | 0.0735 | 0.0861 | 0.0617 |  | 0.0902 |  | 0.0535 | 0.0591 | 
R102G | 0.0572 | 0.0336 | 0.0427 | 0.0478 | 0.0406 |  | 0.0508 | 0.0447 | 0.0521 | 0.0486 | 0.0466 | 0.0508 |  | 0.0642 | 0.0562 |  |  |  | 0.042
R102I | 0.0167 | 0.0485 | 0.0513 | 0.051 | 0.0397 |  | 0.0422 | 0.0492 | 0.0491 |  | 0.0441 | 0.0485 | 0.0358 | 0.0442 | 0.0549 | 0.0534 | 0.0465 | 0.0377 | 0.0341
W144G | 0.0547 | 0.0572 | 0.0739 | 0.0692 | 0.0474 |  | 0.0648 | 0.0714 | 0.0581 | 0.0501 | 0.069 |  | 0.0673 | 0.0666 | 0.0568 |  | 0.0694 | 0.0596 | 0.0719
H76C | 0.0586 | 0.0797 | 0.0602 | 0.0596 | 0.0713 | 0.0612 | 0.0738 | 0.0602 | 0.0729 | 0.0655 | 0.0596 | 0.0509 | 0.0338 | 0.0783 | 0.0619 | 0.0677 |  | 0.0583 | 0.0485
E231W | 0.0584 |  | 0.0732 | 0.0538 | 0.0691 |  | 0.0662 | 0.0495 | 0.0474 |  |  |  |  | 0.0618 |  |  | 0.045 |  | 0.0877
L5M | 0.0513 |  |  | 0.0554 | 0.0355 | 0.0613 | 0.0783 | 0.0587 | 0.0497 |  | 0.0644 | 0.0535 | 0.0684 | 0.0679 |  | 0.057 | 0.0576 |  | 
D128G | 0.036 |  |  |  |  |  | 0.0734 |  |  |  |  |  |  |  |  |  |  |  | 
C152R | 0.0589 | 0.0513 | 0.0695 | 0.0692 | 0.0614 |  | 0.0544 | 0.0576 | 0.058 |  | 0.0637 |  |  | 0.0633 | 0.0452 |  | 0.0567 |  | 0.0567
G202F | 0.0541 | 0.0564 | 0.0699 | 0.0458 | 0.0586 | 0.0502 | 0.0578 | 0.068 | 0.0686 |  |  | 0.056 | 0.0541 | 0.0576 |  | 0.0516 |  | 0.0559 | 0.0708
D149R | 0.0531 | 0.0566 | 0.0697 | 0.0552 |  |  | 0.0569 | 0.0602 |  |  | 0.0713 |  | 0.0556 |  |  | 0.0596 |  |  | 
G37Q | 0.0652 | 0.0517 |  | 0.0459 | 0.0554 |  | 0.0678 | 0.0523 | 0.0513 | 0.0601 |  | 0.0484 | 0.0498 | 0.0477 | 0.0564 | 0.0642 | 0.0542 | 0.0569 | 0.0535
P9Q | 0.064 | 0.0557 |  | 0.0602 | 0.0583 |  |  | 0.0528 |  |  | 0.0688 |  | 0.0491 | 0.0699 |  | 0.0682 |  |  | 0.0427
R81H | 0.061 | 0.063 |  | 0.0594 | 0.0574 |  | 0.0629 | 0.0688 | 0.0588 | 0.0664 | 0.0612 | 0.0966 | 0.0353 | 0.065 | 0.073 | 0.0566 | 0.0603 |  | 0.0422
V200F | 0.0529 | 0.0652 |  | 0.0567 |  |  | 0.0669 |  |  |  |  | 0.0631 |  |  | 0.06 | 0.0528 |  | 0.0542 | 
T72F | 0.0599 | 0.0658 | 0.0691 | 0.0425 | 0.0725 | 0.0501 |  | 0.0591 | 0.0582 |  | 0.0479 | 0.0568 |  | 0.0565 | 0.0491 | 0.0534 | 0.0644 |  | 0.0532
T23W | 0.048 | 0.0457 | 0.063 | 0.0564 | 0.0591 |  | 0.065 | 0.0629 | 0.055 | 0.0528 | 0.0586 | 0.0554 | 0.0645 | 0.0571 | 0.059 | 0.0494 | 0.057 | 0.0643 | 0.0542
L235H | 0.0571 |  | 0.0569 | 0.0513 |  |  | 0.0676 | 0.0344 |  | 0.0738 | 0.0637 |  | 0.0782 | 0.0713 | 0.0869 | 0.056 | 0.0622 |  | 0.0553
